B1: CPEB3 Ribozyme (parent)
chain: UAACAGGGGGCCACAGCAGAAGCGUUCACGUCGCAGCCCCUGUCAGAUUCUGGUGAAUCUGCGAAUUCUGCUGUAUAUCUC

Read counts are not given, so values of variants with three or more changes are uncertain.

In this series the parent is B1. The series can be described thus: self-cleavage, relative activity (ratio to wild type); higher = more cleavage; in vitro, sequencing. Put shortly:
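CPEB3 self-cleaving ribozyme mutant libraries were made by rounds of error-prone PCR, barcoded, and transcribed in vitro with T7 RNA polymerase for 5 hours at 37°C. Cleavage occurred during transcription and a 15 min DNase I step before EDTA stop. RNAs were reverse transcribed with template switching and Illumina-sequenced, with DNA sequencing mapping barcodes to variants. Relative activity is the variant's cleaved/total read fraction divided by wild type's (minimum 5 reads), averaged across three batches.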
Take A28U U41C U48C U76A A77G: the self-cleavage is 0.23. For A28U U58G A75G the value was 0.3; for C29A C40A U76C, 0.29. For A28U A35U U80C the value was 0.44; for A28U U41G A45U A47U U66A U72C, 0.07. For A28U U31G A35U A56G U67C U72C, the self-cleavage stood at 0.04. Take A28U U78C C81U: the self-cleavage stood at 0.99. With C29G C39U U51C U58A U74C, the self-cleavage worked out at 0.06. Consider A28U U43A U49C A64G U72A, for which the self-cleavage stood at 0.11. For A28U U49A A57G, the self-cleavage turned out to be 0.43. For A28U C34U A45C the value was 0.09; for A28U U31A A47U U66C, 0.08.

Turning to A28U C34G C59A U69C U78C, the self-cleavage was determined as 0.06. Regarding A28U U54C U60C, the self-cleavage stood at 0.21. On to A28U U41C U51A A57G U58C, for which the self-cleavage turned out to be 0.24. The value for A28U A45G C50U A64G was 0.29; that for C29A A35G U69C U74C was 0.75. A28U A47G C71G: the self-cleavage worked out at 0.23. Consider C29U A35U A57G G73A, for which the self-cleavage worked out at 0.15. As to A28U A64G U78G, the self-cleavage is 0.74. For A28U A35U U67C the value was 0.09; for A28U U48G C50U, 0.23; for A28U C32U A64U, 0.1.

For the variant A28G U78C U80A, the self-cleavage turned out to be 0.85.

Take A28U A35G U43A U51C U72C: the self-cleavage was 1.15.

Consider A28U U51A U54C A56U, for which the self-cleavage was found to be 0.23. In the case of A28U U41C U48C, the self-cleavage is 0.83. Take A28U A35U G52A U69A: the self-cleavage stood at 0.14. For A28U U49C C68A C71G the value was 0.15; for A28U U31C A64G U66C, 0.12; for A28U U31C A47G, 0.38.

Take A28U U51G A64G U69C U80A: the self-cleavage worked out at 0.22.

For A28U C37U U41C, the self-cleavage amounted to 0.47. With A28U G36U A47G, the self-cleavage was determined as 0.39. For the variant A28U U49A U51C U78C, the self-cleavage was found to be 0.49.

As to A28U U54C G70U U72A, the self-cleavage came to 0.15. A28G U72C U76C U78C: the self-cleavage was 0.87.

As to C29A U51A U67C U80C, the self-cleavage amounted to 0.14.

Consider A28U A35U G36A U72C, for which the self-cleavage was 0.07.

As for A28U U54C A65G, the self-cleavage was found to be 0.2. C29U A56C A64G U76C: the self-cleavage worked out at 0.1. As to A28U C29U A35U U66C U69C, the self-cleavage amounted to 0.14. In the case of A28U U43G A56U, the self-cleavage was determined as 0.11. Turning to C29A A35U A57G A64U U78C, the self-cleavage turned out to be 0.14.

With C29U A47U U54A G61A U74A, the self-cleavage was found to be 0.1. As to A28U U69A A77G U80C, the self-cleavage came out at 0.24. Turning to A28U G30U G70C U74A, the self-cleavage was determined as 0.06.

Regarding A28U A45G A64G U72A, the self-cleavage was found to be 0.23.

For A28U U43C A45G U67C U80A, the self-cleavage came out at 0.12.

With A28U U49A U54C G63U, the self-cleavage was found to be 0.45. A28U C40A A47U U72C: the self-cleavage worked out at 0.04. Turning to A28U U43C A56G, the self-cleavage was found to be 0.11. In the case of A28U A35G C62U, the self-cleavage was 0.27. Consider A28U A35G C62A, for which the self-cleavage worked out at 0.15. With C29A U51A A57G A64G, the self-cleavage stood at 0.26. For A28U U43A A47U U80A the value was 0.37; for C29U A47G U67A, 0.28. In the case of A28U A47U A64U U72C, the self-cleavage amounted to 0.11. For the variant A28U A35G A77G, the self-cleavage worked out at 1.18. For A28U U43C C68G, the self-cleavage is 0.62.

In the case of A28U C50U U51C, the self-cleavage amounted to 0.58. Consider A28U U43C C62U, for which the self-cleavage was 0.09. For A28U U31A U60A, the self-cleavage amounted to 0.22. As for A28U G46A U72A, the self-cleavage came out at 0.11.

For C29A U48A A56G, the self-cleavage was determined as 0.32. For the variant C29A U49C U80C, the self-cleavage turned out to be 0.12.

With C29U A35C C39A A57C U60A U72G, the self-cleavage turned out to be 0.08. The value for A28U A35G U49A U51A U54C G70U was 0.18; that for A28U U60C A65G U72G A75G was 0.1.

Consider C29G U31C U41C A47G U51C A56G A65G, for which the self-cleavage is 0.42. Consider A28U U54A A57U U72G, for which the self-cleavage is 0.27. On to A28U U51G U66C, for which the self-cleavage stood at 0.25. For A28U A47G U80C the value was 1; for A28U C50G U67C U76C U78C, 0.07; for A28U C39A A57G A64G, 0.09.

As to A28U C40A U67C U72A, the self-cleavage was found to be 0.11. As for A28U G36A A45G, the self-cleavage worked out at 0.16. In the case of C29G A47U U76G, the self-cleavage turned out to be 0.43. Turning to A28U C40U U74A U78C, the self-cleavage is 0.59. On to A28U U54C U69C, for which the self-cleavage was 0.33. Turning to C29U A35G A64G U67A, the self-cleavage was 0.32. C29A G42A U60C C62U: the self-cleavage was determined as 0.39. For A28U U43C U58C U69C U78C the value was 0.08.

The values above are taken from the RNAGym collection of RNA variant scans (doi:10.1093/nar/gkz1192).
